The record followed here is PMC6349883, “Directed evolution of super-secreted variants from phage-displayed human Interleukin-2” (Scientific Reports, 2019).

Test [1] has as its target T1, human CD25 (IL-2R alpha subunit), recombinant, R&D (human, UniProt P01589 22-240).
T1 construct: Interleukin-2 receptor subunit alpha (CD25), human, recombinant extracellular region; also called alpha receptor subunit; source: bought: R&D
T1 sequence (looked up): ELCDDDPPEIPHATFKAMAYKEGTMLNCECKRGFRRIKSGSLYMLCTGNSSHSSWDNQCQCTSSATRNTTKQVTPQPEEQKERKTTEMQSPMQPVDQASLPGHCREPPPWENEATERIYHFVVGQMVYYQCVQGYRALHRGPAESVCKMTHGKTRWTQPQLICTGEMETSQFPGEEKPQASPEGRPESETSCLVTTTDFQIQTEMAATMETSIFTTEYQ
Description: ELISA; Fc-fusion proteins incubated on polyvinyl chloride microplates coated with the recombinant IL-2R subunits (R&D); bound proteins detected with anti-human Fc antibody conjugated to horseradish peroxidase. Conditions: both partners purified. Background: ELISA stands for enzyme-linked immunosorbent assay.

Test [2] addresses T2, mouse CD25 (IL-2R alpha subunit), recombinant, R&D (mouse, UniProt P01590 22-236).
T2 construct: Interleukin-2 receptor subunit alpha (CD25), mouse, recombinant extracellular region; source: bought: R&D
T2 sequence (looked up): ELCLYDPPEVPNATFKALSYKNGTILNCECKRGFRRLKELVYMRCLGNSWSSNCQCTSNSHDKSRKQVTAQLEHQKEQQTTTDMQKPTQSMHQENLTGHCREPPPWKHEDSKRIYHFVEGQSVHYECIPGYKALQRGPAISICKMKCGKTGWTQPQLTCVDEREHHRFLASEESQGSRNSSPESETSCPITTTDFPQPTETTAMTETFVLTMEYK
The description is as above. Conditions: both partners purified.

B1: IL-2 (K35E)/human Fc fusion protein (Fc fusion)
chain: not shown
notes: Interleukin-2, human, with K35E; Predominantly a homodimer by SEC, due to the Fc moiety; 80 kDa; also called K35E IL-2/Fc; IL-2 K35E/Fc; not shown: Fc (human IgG1), C-terminal, kept
Consider B1, for which the binding result in test [1] and in test [2] was “binds” throughout.
